From patent US20130310317A1 (Bristol-Myers Squibb, published 2013)

Biological target: human IGF-IR on cells (human, UniProt P08069 31-1367)
Test: cell-based or functional assay

IC50, proliferation of H929 cells (3H-thymidine): 0.15 nM
IC50, proliferation of Rh41 cells (3H-thymidine), Trial 1: 48.6 nM
IC50, proliferation of Rh41 cells (3H-thymidine), Trial 2: 39.4 nM
IC50, proliferation of Rh41 cells (3H-thymidine), average of trials: 44 nM
B1: 385A08-Fc (Fc fusion)
chain: GVSDVPRDLEVVAATPTSLLISWSARLKVARYYRITYGETGGNSPVQEFTVPKNVYTATISGLKPGVDYTITVYAVTRFRDYQPISINYRTEIDKPSQDPGS[human IgG1 Fc with changes not written out]
